Source: PubChem BioAssay AID1508642 (National Center for Advancing Translational Sciences (NCATS), 2021)
Screen size: about 43,000 compounds; about 200 (0.47%) were called active. Inconclusive results (about 12%) are left out. Calls follow the shape of the dose curve; as a rule, active = well fitted cell-killing curve with a large enough effect; inconclusive = small, poorly fitted or top-dose-only effect, or effect the other way; inactive = flat fitted curve, though single readings scatter. Some of the results follow.

Assay: Cell viability qHTS assay in S16 Pmp22-F2sN cells; also: nearly all actives have a fitted effect of over 65% in size
Details: S16 Pmp22-F2sN Schwann cells viability, CellTiter-Glo, 24 h; series mostly up to 57.5 µM; activity change, negative = cytotoxicity: at the top concentration
How it was run: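 Viability was measured by CellTiter-Glo luminescence (15 min, room temperature). This followed 24 h at 37 °C of compound exposure (23 nL pin transfer) in S16 Pmp22-F2sN Schwann cells, 500-1,000 per well.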
% is scaled to controls: 0 for no effect and ±100 for the full control effect; potency is read from the fitted curve at half-maximal effect.

Row | Structure (SMILES) | activity change, negative = cytotoxicity | Potency
1 | Cc1ccc(CN(Cc2ccco2)C(=O)COc2ccc(Cl)cc2Cl)cc1 | inactive: -21.4% | 
2 | COc1ccc(-c2nnc(SCC(=O)NCc3ccccc3)nc2-c2ccc(OC)c(OC)c2)cc1OC | inactive: 0.982% | 
3 | CCOc1ccccc1CNC(=O)CN(c1ccc(C)cc1)S(=O)(=O)N(C)C | inactive: -7.87% | 
4 | CC(C)(C)c1ccc(S(=O)(=O)c2cnc(SCC(=O)Nc3ccc(F)c(Cl)c3)[nH]c2=O)cc1 | inactive: 6.17% | 
5 | COc1cccc(-c2nc(CS(=O)(=O)CC(=O)Nc3cc(F)ccc3F)c(C)o2)c1 | inactive: 8.14% | 
6 | Cc1ccc(NC(=O)CSc2nc3ccccc3c3nc(CCn4cncc4C)nn23)c(C)c1 | inactive: -2.33% | 
7 | Cc1ccc(OCC(=O)N(Cc2ccco2)Cc2ccco2)cc1 | inactive: 0.705% | 
8 | CCN(CCCNC(=O)CSc1cc(=O)n(C)c2cc(Cl)ccc12)c1cccc(C)c1 | inactive: -28% | 
9 | Cc1c2cnn(-c3ccccc3)c(=O)c2c(C)n1CC(=O)N1CCN(c2ccc(F)cc2)CC1 | inactive: -29.2% | 
10 | COc1cc(-c2noc(-c3ccc(N4CCOCC4)c([N+](=O)[O-])c3)n2)cc(OC)c1OC | inactive: 5.15% | 
11 | COc1ccc2nc3sc(C(=O)N4CCN(c5ccccc5)CC4)cc3cc2c1 | inactive: -3.6% | 
12 | COc1ccc(CCNC(=O)CCn2c(=O)c3ccccc3n(Cc3c(C)cc(C)cc3C)c2=O)cc1OC | inactive: 13% | 
13 | CCS(=O)(=O)c1nc2ccccc2n1CC(=O)Nc1ccccc1C(=O)OC | inactive: 6.8% | 
14 | Oc1c(C(c2ccc(Br)cc2)N2CCOCC2)sc2nc(-c3ccco3)nn12 (stereo not given) | inactive: 15.1% | 
15 | CCc1ccc(C(=O)c2c(N)c(-c3nc(-c4ccc5c(c4)OCO5)cs3)c3ccccn23)cc1 | inactive: 11.3% | 
16 | O=C(Cn1c(=O)n(-c2ccc(Cl)cc2)c(=O)c2sc3ccccc3c21)NC1CCCCC1 | inactive: 14.1% | 
17 | COc1ccc(-c2cc(C(F)(F)F)nc(NCc3ccccc3)n2)cc1 | inactive: 17.7% | 
18 | Cc1ccccc1NC(=O)Cn1c(=O)n(-c2ccc(CC(=O)NCC3CCCO3)cc2)c(=O)c2ccccc21 (stereo not given) | inactive: 14.6% | 
19 | COc1cc(OC)c(NC(=O)CCn2cccn2)cc1Cl | inactive: 1.52% | 
20 | CN(Cc1ccccc1)C(C(=O)NC1CCCCC1)c1ccc(Cl)cc1 (stereo not given) | inactive: -2.73% | 

Row | Structure (SMILES) | activity change, negative = cytotoxicity | Potency
21 | Fc1ccc(C(Nc2ccc(Cl)c(C(F)(F)F)c2)c2nnc(-c3ccccc3)o2)cc1 (stereo not given) | inactive: -9.9% | 
22 | COC(=O)c1ccc(Cl)cc1NC(=O)N1CCC(CN2CCCC2)CC1 | inactive: -1.25% | 
23 | Cc1ccc(C(=O)c2cn(Cc3ccccc3F)c3cc4c(cc3c2=O)OCO4)cc1 | inactive: 2.25% | 
24 | N#C/C(=C\c1ccc(Br)cc1)c1nc(-c2cc3cc(Br)ccc3oc2=O)cs1 | inactive: 3.44% | 
25 | O=C(Nc1ccc(Br)cc1)c1ccc(Br)c(S(=O)(=O)N2CCCCC2)c1 | inactive: -24.8% | 
26 | Cc1cn2c(=O)cc(COC(=O)c3cccc(NC(=O)COc4ccc(Cl)cc4)c3)nc2s1 | inactive: -0.0303% | 
27 | Cc1ccc(CCNC(=O)c2cc3sccc3n2Cc2ccc(F)cc2)cc1 | inactive: -5.31% | 
28 | CCc1ccc(S(=O)(=O)c2c[nH]c3cc(OC)c(OC)cc3c2=O)cc1 | inactive: -1.77% | 
29 | COc1ccc2cc3cc(C(=O)NCCc4ccccc4)sc3nc2c1Cl | inactive: -2.88% | 
30 | CCc1ccccc1N(C)S(=O)(=O)c1ccc2[nH]cc(C(=O)NCCOC)c(=O)c2c1 | inactive: -0.449% | 
31 | Cc1ccc(N2CCN(C(=O)c3c(C)oc4nc(C)nc(N5CCCC5)c34)CC2)c(C)c1 | inactive: -14.1% | 
32 | COc1cc(NS(=O)(=O)c2ccc(NC(=O)c3ccc(C(C)=O)cc3)cc2)nc(OC)n1 | inactive: 13.9% | 
33 | CCOC(=O)c1cccc(NC(=O)N2CC(CC)Oc3ccccc32)c1 (stereo not given) | inactive: -0.718% | 
34 | COc1ccc(NC(=O)c2sc3nc4c(cc3c2N)CCCCCC4)cc1Cl | inactive: -19.3% | 
35 | O=C(CSc1ncc2c(n1)-c1ccccc1N(Cc1ccc(F)cc1)S2(=O)=O)NCc1ccccc1 | inactive: 3.52% | 
36 | Cc1cccc(CNC(=O)CCCN2C(=O)COc3ccc(C)cc32)c1 | inactive: -1.71% | 
37 | CCn1c(=O)c2cc(C(=O)N(C)c3cc(Cl)c(OC)cc3OC)sc2c2ccccc21 | inactive: 10.8% | 
38 | Cc1cccc(-n2ncc(C(=O)NCc3ccco3)c2C2CCN(C(=O)OC(C)(C)C)CC2)c1 | inactive: -22% | 
39 | COc1ccc2cc3cc(C(=O)Nc4ccccc4C)oc3nc2c1 | inactive: 5.24% | 
40 | COc1ccc(NC(=O)CSc2nc(C)cc(C)c2C(=O)Nc2cccc(C)c2)cc1 | inactive: 4.56% | 

Row | Structure (SMILES) | activity change, negative = cytotoxicity | Potency
41 | COc1cccc(C(=O)Nc2ccccc2-c2nnc(-c3ccc(C(C)(C)C)cc3)o2)c1 | inactive: 10.5% | 
42 | O=C(c1ccccc1Cl)N1CCN(CCc2ccccn2)CC1 | inactive: 14.2% | 
43 | Cc1ccccc1NC(=O)c1ccc(F)c(S(=O)(=O)NC2CCCC2)c1 | inactive: 13.6% | 
44 | CCN1CCN(C(=O)c2ccc3c(c2)N(Cc2ccccc2F)C(=O)c2ccccc2S3(=O)=O)CC1 | inactive: 11.4% | 
45 | C[C@@H](NC(=O)CN(c1ccccc1)S(=O)(=O)N(C)C)c1ccccc1 | inactive: 4.92% | 
46 | CCCOC(=O)c1ccc(Nc2nc3ccccc3nc2-n2nc(C)cc2C)cc1 | inactive: -2.62% | 
47 | CCOc1ccc(-c2cc(CCCC(=O)NCCc3ccc(OCC)c(OCC)c3)no2)cc1 | inactive: -1.53% | 
48 | CCOc1ccc(CCNC(=O)Cc2ccc(NC(=O)N3CCSc4ncccc43)cc2)cc1 | inactive: 2.74% | 
49 | COc1ccc(-n2nc(C(=O)N3CCN(c4cccc(C(F)(F)F)c4)CC3)c3c4ccccc4n(C)c3c2=O)cc1Cl | inactive: 25.6% | 
50 | COc1cc(OC)cc(C(=O)Nc2nc(-c3nnn(-c4ccc(F)c(Cl)c4)c3C)ns2)c1 | inactive: -11% | 
51 | COc1cccc(N2CCN(C(=O)Cn3ncc4c5ccccc5n(C)c4c3=O)CC2)c1 | inactive: -0.64% | 
52 | Cc1cccc(-c2noc(-c3cc(-c4ccc(F)cc4)n[nH]3)n2)c1 | inactive: 2.4% | 
53 | Cc1oc2ncn(C)c(=O)c2c1C(=O)NCc1ccccc1 | inactive: 6.93% | 
54 | CCOCCc1nn2c(=O)cc(COC(=O)c3ccco3)nc2s1 | inactive: -0.314% | 
55 | COc1cc(-c2noc(-c3ccc(N4CCCCC4)c([N+](=O)[O-])c3)n2)cc(OC)c1OC | inactive: 2.89% | 
56 | O=C(Nc1ccc2oc(-c3cc(Br)ccc3Cl)nc2c1)c1ccc2ccccc2c1 |  | active: 22.4 µM
57 | COc1cccc(CNC(=O)c2nnc(Cc3ccc(Cl)cc3)o2)c1 | inactive: 5.07% | 
58 | O=C(CSc1nc(O)c(C/C=C/c2ccccc2)c(=O)[nH]1)Nc1cccc(F)c1 | inactive: -9.9% | 
59 | CC(C)(C)c1ccc(S(=O)(=O)N2CCN(C(=O)c3cc(-c4ccc(Br)cc4)n[nH]3)CC2)cc1 | inactive: 2.31% | 
60 | O=C(NCc1ccc(Cl)cc1)C1CCN(S(=O)(=O)c2ccc3c(c2)CCCN3C(=O)C2CCC2)CC1 | inactive: -4.43% | 
